Laboratory results reported in PMC11995724, “Antibiotic target discovery by integrated phenotypic and activity-based profiling of electrophilic fragments” (Cell chemical biology, 2025).
About 110 (3.4%) of roughly 3,200 compounds showed an effect of 50% or more. The list shows a part of the results.

Tested on: T1, V. cholerae SAD30
T1 construct: SAD30
Design: species or system S. aureus MSSA476 (TSB) or V. cholerae SAD30 (LB); 384-well bacterial growth screen at 25 uM, OD600 relative to DMSO control
Settings: relative growth, OD600, LB; 25 µM; inhibitor

Compound | % of control remaining [%]
Cc1nc(-c2cccc(NC(=O)CCl)c2)cs1 [5-K17, 2-chloro-N-[3-(2-methyl-1,3-thiazol-4-yl)phenyl]acetamide] | 93.643
CC(Cl)C(=O)Nc1ccc(F)c(Cl)c1 (stereo not shown) [4-A04, 2-chloro-N-(3-chloro-4-fluorophenyl)propanamide] | 99.7196
CC(C)NC(=O)C(C#N)=Cc1cccc(Cl)c1 [9-A13, 3-(3-chlorophenyl)-2-cyano-N-(propan-2-yl)prop-2-enamide] | 88.0354
COc1ccc(C=C(C#N)C(=O)Nc2cccc(C)c2)cc1 [8-M03, 2-cyano-3-(4-methoxyphenyl)-N-(3-methylphenyl)prop-2-enamide] | 85.4521
CC(Cl)C(=O)Nc1ccc(S(=O)(=O)N2CCCCC2)cc1 (stereo not shown) [4-A12, 2-chloro-N-[4-(piperidine-1-sulfonyl)phenyl]propanamide] | 95.234
CC(Cl)C(=O)N1CCN(C(c2ccccc2)C(F)(F)F)CC1 (stereo not shown) [6-P16, 2-chloro-1-[4-(2,2,2-trifluoro-1-phenylethyl)piperazin-1-yl]propan-1-one] | 99.8009
O=C(CCl)C1CCCC2(CC2)C1 (stereo not shown) [10-E11, 2-chloro-1-{spiro[2.5]octan-5-yl}ethan-1-one] | 109.254
Cl.Cn1ccc(-c2nc(CNC(=O)CCl)cs2)n1 [6-B09, 2-chloro-N-{[2-(1-methyl-1H-pyrazol-3-yl)-1,3-thiazol-4-yl]methyl}acetamide hydrochloride] | 80.3868
C=CC(=O)Nc1ccc(C(=O)N2C[C@H](O)C[C@H]2C(=O)OC)cc1 [2-O21, methyl (2S,4R)-4-hydroxy-1-[4-(prop-2-enamido)benzoyl]pyrrolidine-2-carboxylate] | 94.2102
C=CC(=O)N(Cc1c(C)cc(Cl)cc1C)CC1COCCO1 (stereo not shown) [1-J09, N-[(4-chloro-2,6-dimethylphenyl)methyl]-N-[(1,4-dioxan-2-yl)methyl]prop-2-enamide] | 120.329
Cc1c(NC(=O)CCl)cccc1[N+](=O)[O-] [4-E07, 2-chloro-N-(2-methyl-3-nitrophenyl)acetamide] | 98.512
O=C(CCl)NC(c1ccccc1)C1CCCCC1 (stereo not shown) [6-E12, 2-chloro-N-[cyclohexyl(phenyl)methyl]acetamide] | 79.0217
CC(=O)NCc1ccc(C2CCCN2C(=O)CCl)o1 (stereo not shown) [5-P13, N-({5-[1-(2-chloroacetyl)pyrrolidin-2-yl]furan-2-yl}methyl)acetamide] | 100.368
C=CC(=O)Nc1cccc(-c2cn(C)nn2)c1 [1-K14, N-[3-(1-methyl-1H-1,2,3-triazol-4-yl)phenyl]prop-2-enamide] | 83.4081
CCOC(=O)c1c(NC(=O)CCl)sc(C)c1C [4-O15, ethyl 2-(2-chloroacetamido)-4,5-dimethylthiophene-3-carboxylate] | 102.998
C=CC(=O)N1CCN(S(C)(=O)=O)[C@H](C)C1 [1-G15, 1-[(3R)-4-methanesulfonyl-3-methylpiperazin-1-yl]prop-2-en-1-one] | 91.4798
N#CC(=Cc1ccccc1)C(=O)Nc1ccc(N2CCCCC2)cc1 [8-E15, 2-cyano-3-phenyl-N-[4-(piperidin-1-yl)phenyl]prop-2-enamide] | 71.7199
O=C(CCl)NCCC1=CCCCC1 [4-H05, 2-chloro-N-[2-(cyclohex-1-en-1-yl)ethyl]acetamide] | 111.451
CC(NC(=O)C(C#N)=Cc1ccco1)c1cccc(-n2cccn2)c1 (stereo not shown) [9-J04, 2-cyano-3-(furan-2-yl)-N-{1-[3-(1H-pyrazol-1-yl)phenyl]ethyl}prop-2-enamide] | 81.5092
CC(Cl)C(=O)N1CCC(n2nnc3c2CCCC3)CC1 (stereo not shown) [7-H17, 2-chloro-1-[4-(4,5,6,7-tetrahydro-1H-1,2,3-benzotriazol-1-yl)piperidin-1-yl]propan-1-one] | 75.4667
N#CC(=Cc1c(F)cccc1F)C(=O)Nc1ccccc1Cl [9-I20, N-(2-chlorophenyl)-2-cyano-3-(2,6-difluorophenyl)prop-2-enamide] | 88.3073
C=CC(=O)N1CCOC(c2nc(C)cs2)C1 (stereo not shown) [3-A17, 1-[2-(4-methyl-1,3-thiazol-2-yl)morpholin-4-yl]prop-2-en-1-one] | 114.144
CC(Cl)C(=O)NC1CCCc2ccccc21 (stereo not shown) [5-M19, 2-chloro-N-(1,2,3,4-tetrahydronaphthalen-1-yl)propanamide] | 88.2631

Compound | % of control remaining [%]
CC1CC(C(=O)CCl)CO1 (stereo not shown) [10-M13, 2-chloro-1-(5-methyloxolan-3-yl)ethan-1-one] | 117.514
CC(Cl)C(=O)Nc1ccc(Cl)c(C(F)(F)F)c1 (stereo not shown) [4-C12, 2-chloro-N-[4-chloro-3-(trifluoromethyl)phenyl]propanamide] | 57.796
C=CC(=O)N1CCC(n2cc(CO)nn2)C1 (stereo not shown) [2-E08, 1-{3-[4-(hydroxymethyl)-1H-1,2,3-triazol-1-yl]pyrrolidin-1-yl}prop-2-en-1-one] | 89.2695
C=CC(=O)N(C)CC(=O)NCc1nc2cc(C)ccc2n1C [2-B14, N-({[(1,5-dimethyl-1H-1,3-benzodiazol-2-yl)methyl]carbamoyl}methyl)-N-methylprop-2-enamide] | 85.2552
C=CC(=O)N1CCC(n2cnc3ccccc3c2=O)C1 (stereo not shown) [3-C03, 3-[1-(prop-2-enoyl)pyrrolidin-3-yl]-3,4-dihydroquinazolin-4-one] | 122.437
N#CC(=Cc1ccccc1)C(=O)NCc1ccc(F)cc1 [8-P10, 2-cyano-N-[(4-fluorophenyl)methyl]-3-phenylprop-2-enamide] | 74.5751
CCn1nc(C)c(C=C(C#N)C(=O)Nc2ccccc2Cl)c1C [9-F07, N-(2-chlorophenyl)-2-cyano-3-(1-ethyl-3,5-dimethyl-1H-pyrazol-4-yl)prop-2-enamide] | 87.2196
C=CC(=O)Nc1ccccc1CCSC [1-A19, N-{2-[2-(methylsulfanyl)ethyl]phenyl}prop-2-enamide] | 86.846
C=CC(=O)N1CCC(Cc2ccnn2C)CC1 [2-C19, 1-{4-[(1-methyl-1H-pyrazol-5-yl)methyl]piperidin-1-yl}prop-2-en-1-one] | 93.747
C=CC(=O)N(C)Cc1c(C)nn(C)c1Cl [1-C15, N-[(5-chloro-1,3-dimethyl-1H-pyrazol-4-yl)methyl]-N-methylprop-2-enamide] | 89.3871
C=CC(=O)N1CCN(C(=O)c2ccc(OC)c(OC)c2OC)CC1 [1-H12, 1-[4-(2,3,4-trimethoxybenzoyl)piperazin-1-yl]prop-2-en-1-one] | 105.25
CCC(NC(=O)CCl)c1ccc(Cl)cc1 (stereo not shown) [6-O10, 2-chloro-N-[1-(4-chlorophenyl)propyl]acetamide] | 91.7623
C=CC(=O)N1CCC(C(=O)NCc2nc(C)c(C)s2)CC1 [3-B12, N-[(4,5-dimethyl-1,3-thiazol-2-yl)methyl]-1-(prop-2-enoyl)piperidine-4-carboxamide] | 104.087
N#CC(=CC=Cc1ccccc1[N+](=O)[O-])C(N)=O [8-F19, 2-cyano-5-(2-nitrophenyl)penta-2,4-dienamide] | 73.8953
C=CC(=O)NCc1cnc(C)n1-c1ccccc1 [2-F19, N-[(2-methyl-1-phenyl-1H-imidazol-5-yl)methyl]prop-2-enamide] | 94.6734
CCOc1ccc(NC(=O)C(C)Cl)cc1 (stereo not shown) [6-O09, 2-chloro-N-(4-ethoxyphenyl)propanamide] | 88.5771
C=CC(=O)N(C[C@H]1CCCO1)C1CCC(CC)CC1 (stereo partly drawn) [1-D03, N-(4-ethylcyclohexyl)-N-{[(2R)-oxolan-2-yl]methyl}prop-2-enamide] | 102.691
C=CC(=O)N1CCC[C@H]1Cn1cc(C2CC2)nn1 [1-L18, 1-[(2S)-2-[(4-cyclopropyl-1H-1,2,3-triazol-1-yl)methyl]pyrrolidin-1-yl]prop-2-en-1-one] | 107.704
CCc1ccc(NC(=O)C(C#N)=Cc2ccc(F)c(C#N)c2)cc1 [8-M20, 2-cyano-3-(3-cyano-4-fluorophenyl)-N-(4-ethylphenyl)prop-2-enamide] | 63.6982
Cc1cccc(N(Cc2ccccc2)C(=O)CCl)c1 [6-O07, N-benzyl-2-chloro-N-(3-methylphenyl)acetamide] | 92.2173
Cc1cc(-n2c(C)cc(C(=O)CCl)c2C)no1 [10-C18, 2-chloro-1-[2,5-dimethyl-1-(5-methyl-1,2-oxazol-3-yl)-1H-pyrrol-3-yl]ethan-1-one] | 106.137
O=C(CCl)c1ccc(C(F)(F)F)cc1 [10-B10, 2-chloro-1-[4-(trifluoromethyl)phenyl]ethan-1-one] | 79.174
Cc1ccc(NC(=O)C(C#N)=Cc2cccc([N+](=O)[O-])c2)cc1 [8-J17, 2-cyano-N-(4-methylphenyl)-3-(3-nitrophenyl)prop-2-enamide] | 70.9041
